According to paper PMC4336329 (PLoS ONE, 2015):
Screen size: about 310,000 compounds; about 2,200 (0.71%) showed an effect of 50% or more. The effect is printed as a negative number. This is one part of the list.

Target: human ether-à-go-go-related gene (hERG) potassium channel (human, UniProt Q12809)
Assay: primary screen, population patch clamp on CHO cells stably expressing hERG

human ether-à-go-go-related gene (hERG) potassium channel, sequence (Q12809 whole entry, looked up): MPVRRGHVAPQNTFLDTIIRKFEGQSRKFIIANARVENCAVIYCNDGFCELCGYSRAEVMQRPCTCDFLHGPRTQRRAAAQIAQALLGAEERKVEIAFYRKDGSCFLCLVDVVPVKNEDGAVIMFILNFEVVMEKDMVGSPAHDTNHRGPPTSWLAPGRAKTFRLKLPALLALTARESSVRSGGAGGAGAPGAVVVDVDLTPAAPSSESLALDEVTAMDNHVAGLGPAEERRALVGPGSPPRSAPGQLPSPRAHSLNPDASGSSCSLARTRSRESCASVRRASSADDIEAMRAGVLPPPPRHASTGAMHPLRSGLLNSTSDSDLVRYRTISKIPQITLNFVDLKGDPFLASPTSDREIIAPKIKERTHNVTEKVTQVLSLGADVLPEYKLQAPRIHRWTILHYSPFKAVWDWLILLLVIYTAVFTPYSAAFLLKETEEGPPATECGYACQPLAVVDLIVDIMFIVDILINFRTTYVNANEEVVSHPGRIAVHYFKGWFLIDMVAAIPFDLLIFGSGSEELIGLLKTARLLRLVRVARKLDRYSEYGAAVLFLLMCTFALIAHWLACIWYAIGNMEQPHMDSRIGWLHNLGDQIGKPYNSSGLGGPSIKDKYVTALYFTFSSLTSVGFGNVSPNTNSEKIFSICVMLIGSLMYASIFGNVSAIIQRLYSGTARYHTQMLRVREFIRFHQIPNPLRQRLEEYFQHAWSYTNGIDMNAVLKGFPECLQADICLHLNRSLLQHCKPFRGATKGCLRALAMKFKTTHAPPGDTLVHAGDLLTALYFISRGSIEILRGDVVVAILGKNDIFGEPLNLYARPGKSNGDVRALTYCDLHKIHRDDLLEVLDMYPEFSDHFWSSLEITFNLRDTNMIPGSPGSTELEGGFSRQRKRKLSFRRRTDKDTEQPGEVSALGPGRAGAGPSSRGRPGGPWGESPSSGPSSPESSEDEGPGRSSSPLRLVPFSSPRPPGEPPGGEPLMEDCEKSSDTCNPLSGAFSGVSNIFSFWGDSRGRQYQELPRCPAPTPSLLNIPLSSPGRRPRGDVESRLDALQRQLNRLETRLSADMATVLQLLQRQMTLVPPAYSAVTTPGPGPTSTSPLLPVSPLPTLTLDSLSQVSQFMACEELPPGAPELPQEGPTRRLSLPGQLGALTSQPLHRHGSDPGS

Row | Compound | hERG current change (%, negative = inhibition) at 1uM
1 | COc1ccc(CCNC(=O)CCCCC(=O)NCCc2ccc(OC)c(OC)c2)cc1OC | 3.97%
2 | Oc1ccc(C[C@H]2CNCCN2CCc2cccc(F)c2)cc1 | 7.34%
3 | CC(C)COc1ccc(-c2nnc(-c3ccncc3)o2)cc1 | -5.97%
4 | Cc1cccc(N(CC(=O)N2CCOCC2)S(C)(=O)=O)c1C | -10.9%
5 | NNS(=O)(=O)c1ccc(Sc2ccccn2)c([N+](=O)[O-])c1 | 12.2%
6 | CCn1c(Cc2ccc(OC)cc2)nnc1SCC(=O)NC1CC1 | 16.1%
7 | Cc1nn(C)cc1C(C)NCc1c(C(=O)N2CCCCCCC2)nc2ccc(Cl)cn12 (stereo not shown) | 12.3%
8 | C/C(=N\Nc1nc(N)cc(Cl)n1)c1cccc([N+](=O)[O-])c1 | 11.9%
9 | O=C(O)c1ccc(/C=N/N2CCN(Cc3ccccc3)CC2)cc1 | 2.38%
10 | CCOC(=O)c1c(-c2ccc(F)cc2)csc1NC(=O)C1CC=CCC1C(=O)O (stereo not shown) | 0.606%
11 | CCOC(=O)c1c(C)[nH]c(C(=O)OC/C(O)=C(\C#N)c2nc3ccccc3[nH]2)c1C | 0.203%
12 | C=CCn1c(COc2ccc(Cl)cc2)nnc1SCC(=O)NCC(=O)OCC | -0.242%
13 | CC(=O)Nc1ccc(S(=O)(=O)Oc2cccc(/C=C3\SC(N)=NC3=O)c2)cc1 | 5.46%
14 | CCOc1ccc(N2CC(C(=O)NCc3ccccc3)CC2=O)cc1 (stereo not shown) | 9.84%
15 | CC1=CCC(C(=O)O)C(C(=O)Nc2ccc(-c3nc4ccc(C)cc4s3)cc2)C1 (stereo not shown) | 9.75%
16 | CCOC(=O)CCC(=O)Nc1ccc(S(=O)(=O)N2CCC(C)CC2)cc1 | 9.42%
17 | CCOC(=O)CC1COCCN1C(=O)c1ccc2oc(Cc3ccccc3)nc2c1 (stereo not shown) | 7.57%
18 | O=C(c1cc(NC(=O)C23CC4CC(CC(C4)C2)C3)cc(NC(=O)C23CC4CC(CC(C4)C2)C3)c1)N1CCCCC1 | 17%
19 | Cc1cccc(-n2c(C)cc(C(=O)NC3CCCCC3)c2C)c1 | 0.191%
20 | C/C(=N/NS(=O)(=O)c1ccc(F)cc1)c1ccc(NC(=O)c2ccc(C)o2)cc1 | 14.2%
21 | COCCNC(=O)c1ccc(C)c(S(=O)(=O)Nc2ccc(C)cc2)c1 | 7.48%
22 | O=C(CN(C(=O)CCC(=O)Nc1nccs1)c1ccc(F)cc1)NCCc1ccccc1 | 16.3%
23 | CCCN1C(=O)/C(=C2\SC(=S)N(c3c(C)n(C)n(-c4ccccc4)c3=O)C2=O)c2ccccc21 | 11.9%
24 | CCCCNC(=O)CCNC(=O)c1ccc(C(C)(C)C)cc1 | -0.769%
25 | Cc1ccc(NC(=O)CSCC(=O)NNC(=O)c2ccoc2C)cc1 | 0.47%
26 | S=C(N/N=C/c1ccco1)NC1CC2CCC1C2 (stereo not shown) | 8.84%
27 | O=C(NCc1cccnc1)c1cccc(S(=O)(=O)NCc2ccccc2)c1 | -5.2%
28 | O=C(CN1CCN(Cc2ccccc2)CC1)Nc1cccc(C(F)(F)F)c1 | -27.8%

Row | Compound | hERG current change (%, negative = inhibition) at 1uM
29 | O=C(Cc1ccccc1)NNC(=O)c1ccccc1C(=O)O | 0.653%
30 | CCNc1nc(SC(C)C(=O)OC)nc(N(C)C)n1 (stereo not shown) | 18.2%
31 | BrCCOCCOc1ccc2ccccc2c1 | 9.69%
32 | O=C(O)Cc1n[nH]c(=O)c2ccccc12 | 12.3%
33 | CCOC(=O)Cn1nc(C)c(NC(=O)COc2ccc([N+](=O)[O-])cc2)c1C | -14.4%
34 | COc1ccc2cc(C(=O)C3CCCN(C(=O)CSc4nnc(C)o4)C3)ccc2c1 (stereo not shown) | -20.7%
35 | CCOC(=O)c1sc(NC(=O)CSc2nnnn2-c2ccccc2)nc1C | 11.2%
36 | COc1cccc2c(=O)n(CC(=O)Nc3ccc(F)cc3)ccc12 | 12.9%
37 | S=c1nc(-c2ccccc2)[nH]c2ccc(Br)cc12 | 11.9%
38 | Cn1cccc1/C=N/NC(=O)c1cc2ccccc2cc1O | 8.23%
39 | CCOc1ccc(-n2c(C)cc(/C=C3/C(=N)N4C(=NC3=O)SN=C4S(C)(=O)=O)c2C)cc1 | 3.42%
40 | CN1CCN(CC#CCC(O)(c2ccccc2)C2CCCC2)CC1.Cl (stereo not shown) | 10.1%
41 | COc1ccc(CN2CC(C(=O)NC3CCCCC3)CC2=O)cc1 (stereo not shown) | 6.79%
42 | CC1CN(C(=O)COC(=O)c2ccc(NC(=O)CC#N)cc2)CC(C)O1 (stereo not shown) | 8.63%
43 | OCC(CO)(CO)N=Cc1cc(Br)ccc1O | 12.4%
44 | CCOc1ccc(S(=O)(=O)NCCC(=O)NCc2ccc(OC)c(OC)c2)cc1 | 0.905%
45 | CSc1ccc(CNC(=O)CCn2ccc3cc(S(=O)(=O)N4CCCC4)ccc32)cc1 | 7.87%
46 | Cc1c(C(=O)c2ccccc2)c2ccccn2c1CCC#N | -3.18%
47 | O=C1c2ccccc2C(=O)N1CCCP(=O)(O)CCc1ccccc1 | 18.8%
48 | Cc1cc(C)cc(N2C(=O)C3C4C=CC(C4)C3C2=O)c1 (stereo not shown) | -1.64%
49 | COc1ccccc1C(=O)N1C(CC(=O)Nc2cc(Cl)ccc2C)C(=O)NC2CCCCC21 (stereo not shown) | 22.8%
50 | COc1cc(C)cc2oc(=O)c(CC(=O)N3CCN(C(=O)C4COc5ccccc5O4)CC3)c(C)c12 (stereo not shown) | -0.752%
51 | C/C=C/C(=O)OCC(=O)Nc1cccc(S(=O)(=O)NC2=NCCCCC2)c1 | -0.783%
52 | COC(=O)CCc1c(C)c(C(=O)c2ccco2)c2ccccn12 | 10.7%
53 | CCOC(=O)c1c(C)[nH]c(C)c1C(=O)CSc1nnc(-c2cc(OC)c(OC)c(OC)c2)o1 | 12.5%
54 | Cc1ccc(S(=O)(=O)NN2C(=O)c3ccccc3NC2c2cccc(O)c2)cc1 (stereo not shown) | 6.19%
55 | [N-]=[N+]=NC[C@H](c1ccccc1)N1CCN(Cc2ccccc2)CCC1=O | 8.04%
